Test results from the RNAGym collection of RNA variant scans (doi:10.1073/pnas.2313332121).
Variants at the background level are over-represented here.

B1: TPR 5TU (parent)
chain: GGAUCUUCUCGAUCUAACAAAAAAGACAAAUCUGCCACAAAGCUUGAGAGCAUCUUCGGAUGCAGAGGCGGCAGCCUUCGGUGGCGCGAUAGCGCCAACGUUCUCAACUAUGACACGCAAAACGCGUGCUCCGUUGAAUGGAGUUUAUCAUG

Variants of: B1
Assay: polymerase ribozyme fitness, log enrichment relative to wild type (log ratio); higher = more active; in vitro selection for triplet polymerase activity
In short: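 Frozen incubation at −7 °C formed the core of a single, triplicate in vitro selection round applied to PCR-built, transcribed mutant libraries of each subunit of a heterodimeric triplet polymerase ribozyme. Extended constructs were gel-excised, captured with streptavidin beads and amplified by RT-PCR, and input and output libraries were Illumina-sequenced with a filter of ≥10 input reads and ≥1 read per output. Fitness is the logarithm of genotype enrichment relative to wild-type enrichment, with inverse-variance-weighted replicate averaging, and the logarithm is base 2.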

Point of comparison: C27U A41C C95U C125U, “polymerase ribozyme fitness (log ratio)” value -2.83. Against it:
- C27U G65C A66C A73U C93A C108G C129G — lower, -3.81
- A28C U31A U53A C54A C72U U78C A107G G126U — lower, ≤ -4.2
- C27U A28U C76U U78G C93G A119G — lower, ≤ -4.2
- C27G C79A — lower, ≤ -4.2
- C27G C79U — lower, ≤ -4.2
- C27G C87U A97U C99G — lower, ≤ -4.2
- C27A C85G G88A A142C — lower, ≤ -4.2
- C27G U55A C75G C87A G94U — lower, ≤ -4.2
- A26U U56A U101G A115G — lower, -3.42
- A28C A39U G59U G136U — lower, ≤ -4.2
- C27U G68U C79G G141U — lower, ≤ -4.2
- A28C G50C C93G C105A U134C — lower, ≤ -4.2
- C27G G50C A91U G100C U134G G136U G143A — lower, ≤ -4.2
- A28C A29U A52G G83U U148G — lower, ≤ -4.2
- C27G C105A C114A A119G — lower, ≤ -4.2
- C27G A52G G59C A91G C105G U109G U145C — lower, ≤ -4.2
- C27A A49C G92U A113U G143A — lower, ≤ -4.2
- C27A G81C G124A — lower, ≤ -4.2
- C27U A52G A66C C76G G84U C95G G140U — lower, ≤ -4.2
- C27G A41U U55G C87A U90G U134G G140C C149U — lower, ≤ -4.2
- A28C A39C A41U U56A G80A A97U G128U — lower, ≤ -4.2
- C27G A39U G88A A119C G128U U130C — lower, ≤ -4.2
- C27U C105G G124A U134G — lower, ≤ -4.2
- A28C C54A C57U — lower, ≤ -4.2
- C27A G84U C105G C114A — lower, ≤ -4.2
- C27G A52C U82G — lower, ≤ -4.2
- C27A C54A G83A C105G G124A U134A U144G — lower, ≤ -4.2
- A28C A49U U56A G65A G70C A91U G94C G117C U151A — lower, ≤ -4.2
- C27U G46C G74A C95U — lower, ≤ -4.2
- A28C G59U G70A G88U G126U — lower, ≤ -4.2
- C27U A29U U44A U56A C79A C87G G94A G100C U146G U151G — lower, ≤ -4.2
- A28C G140A — lower, ≤ -4.2
- C27A A29U A91G C118U U135G — lower, ≤ -4.2
- C27U A30G U56A G94C G126U A137C — lower, ≤ -4.2
- C27G A28U G50U C87G G140C — lower, -3.94
- C27A A40G U55A G83C — lower, ≤ -4.2
- C27A U45A C57G A60U C69A C87U C93U G133C — lower, ≤ -4.2
- A28C C51U C76U G140A — lower, ≤ -4.2
- C27U G81U C85U — higher, -2.15
- C27A C85A — lower, ≤ -4.2
- C27G A47G C54U G83C G84A G128A — lower, ≤ -4.2
- C27A A52G U56G C93A C123A — lower, ≤ -4.2
- C27A U31C C38U A39U C69U C85A — lower, ≤ -4.2
- C27G A47C G50C U82G A138U — lower, ≤ -4.2
- C27G C85G G88A G100C U148G — lower, ≤ -4.2
- A28C C54U G58A G83A C87A — lower, ≤ -4.2
- C27G C32G C36U C85U C125A U148C — lower, ≤ -4.2
- C27A G83A C85A C96U A119U — lower, ≤ -4.2
- C27G C85U G94C U139G — lower, ≤ -4.2
- C27A C54A C69U C75G C96U G141A — lower, ≤ -4.2
- C27G C54A — lower, -3.98
- C27A C95U A98G — lower, ≤ -4.2
- A28C U44A U102A C105G U145C — lower, ≤ -4.2
- C27A A60G G67C C96U — lower, ≤ -4.2
- A28C A37C G124A A142C — lower, ≤ -4.2
- A28C U90C C96A — lower, ≤ -4.2
- A28C G84A A91U C105G C108G — lower, ≤ -4.2
- C27U A40C U53A C72U C93U G94A A122G — lower, ≤ -4.2
- A28C A39U G48C G70A G84C C93G G140U — lower, ≤ -4.2
- C27U G46C A52C C75G C85A C103U — lower, ≤ -4.2
- C27G C75G G86A C118U — lower, ≤ -4.2
- A28C G88A A106G — lower, ≤ -4.2
- C27A A29C A52U G59U C93G C116U — lower, ≤ -4.2
- C27A G65U U146G — lower, ≤ -4.2
- C27A G34U G88U A122G U146C — lower, ≤ -4.2
- A28C C32G G48U C96G — lower, ≤ -4.2
- C27A C69A — lower, ≤ -4.2
- A28C A41G G42A U44A C76A A121C — lower, ≤ -4.2
- A28C A40U U53A G84U A115U — lower, ≤ -4.2
- A28G A29U — lower, -3.79
- C27A A52U C57A A73G G86A — lower, ≤ -4.2
- C27G G48A C99G — lower, ≤ -4.2
- C27U G68C U82G C85A A89U A91U A122U — lower, ≤ -4.2
- C27U A47U U55A G88C — lower, ≤ -4.2
- A26U U53A C76A A89C G92A G126U C132G — lower, ≤ -4.2
- C27A G81A G94C — lower, ≤ -4.2
- A28C G88C — lower, ≤ -4.2
- C27U A49C C87U G92A — lower, ≤ -4.2
- A28C U56C A73G G94A A98G C116A — lower, ≤ -4.2
- C27U G34U C93U G112C U148G — lower, ≤ -4.2
- C27A A49C U90G U145C — lower, ≤ -4.2
- C27U U31G C43U C95U — lower, ≤ -4.2
- A28C G59A U77A G84A U90A C118G U127G U151A — lower, ≤ -4.2
- C27G C57U A91U C95A C131G U134G G140A — lower, ≤ -4.2
- C27U U55A — higher, -0.901
- A28C C76U A89G G92U C108G U134C G140A — lower, ≤ -4.2
- C27G G92C G143C U148G — lower, ≤ -4.2
- C27A A30C A89G G92A C105U G140U — lower, -3.96
- C27A C87G — lower, ≤ -4.2
- C27A C87U — lower, -3.91
- C27A A28U U53G G81A C87U A119G G140A A142G — lower, ≤ -4.2
- C27A C36G A47C G48C C93A U111G — lower, ≤ -4.2
- C27A A91C A120G G143C U145A — lower, ≤ -4.2
- C27A A49C U53G A73G C95A C114G — lower, ≤ -4.2
- C27G A28G C93G C114U A120U G143U — lower, ≤ -4.2
- C27G A39G G83A G143U — lower, ≤ -4.2
- A28C C93A C149A — lower, ≤ -4.2
- A28C U31G G50C A52C G74A G80U G86U A121U — lower, ≤ -4.2
- A28C C93G A110U A121U A142G — lower, ≤ -4.2
- C27G C75U C79A G94C C96G A98G U104G G133C U145C — lower, ≤ -4.2
- C27U C35A A37C C51U U127A — lower, ≤ -4.2
- C27U C93G A97U A121G — lower, ≤ -4.2
- C27G A39G C93G G112A C129G — lower, ≤ -4.2
- C27A G34A A60G C95A A107U U130A — lower, ≤ -4.2
- C27G A47C U90C — lower, ≤ -4.2
- C27U A28G G50A — lower, ≤ -4.2
- A28C C54U G74A — lower, ≤ -4.2
- C27A U101G — lower, -3.63
- C27A A49G G80A C85G G86C A137C C149G — lower, ≤ -4.2
- C27U G83A C125U U130G U135G — lower, ≤ -4.2
- A28C C85G U111G U135C — lower, ≤ -4.2
- C27U G42A G67U C69A G117A A150C — lower, ≤ -4.2
- A26U U56G G92C A113G — lower, ≤ -4.2
- C27U A29G C36U C54A C76A C95G U109G A110C — lower, ≤ -4.2
- C27U A49C G59A — lower, ≤ -4.2
- C27U A37G G58C G68A G70U C87A C103U A115U — lower, ≤ -4.2
- C27U U33C A73G C85U — higher, -0.859
- C27U A40G A66U C76U C93U — lower, ≤ -4.2
- A28C U33A C85G — lower, ≤ -4.2
- A26U U82A A106C — lower, -3.93
- C27U C35A A60C — lower, ≤ -4.2
- A28G A29C A64G C79A U134G — lower, ≤ -4.2
- A28C U53G G59C G71A A106G A150U — lower, ≤ -4.2
- A28G A30G G86U C93G G117C A147G — lower, ≤ -4.2
- A28C G42U C57U G70U C85U — lower, ≤ -4.2
- A28C C79G G80C A107U — lower, ≤ -4.2
- C27A G58A G84A — lower, ≤ -4.2
- C27G G48A U55A G74A C76G U78G G83U C85G C96A — lower, ≤ -4.2
- A26U U151C — lower, ≤ -4.2
- C27G C103A A138U U144G U151C — lower, ≤ -4.2
- C27A U44A C85A A107C U148C — lower, ≤ -4.2
- A28C G48U C69G C85U A89U U101A C116A U151C — lower, ≤ -4.2
- C27A A29G U33G C35A A60G C93G A97G A120U G133U U134G — lower, ≤ -4.2
- C27U C32U C35A G86C G141C — lower, ≤ -4.2
- C27G A37G G94C G126A — lower, ≤ -4.2
- C27U G92C C116U A119U U135G — lower, ≤ -4.2
- C27G A73G C85G — lower, ≤ -4.2
- A28C A39C C69A C118G — lower, ≤ -4.2
- A28C A52U G86C — lower, ≤ -4.2
- A28C C36U U44C G59A U82C C85A A97U C108U C114U C131G U151C — lower, ≤ -4.2
- C27G C57G C118G A142U A147U — lower, ≤ -4.2
- C27G U56A C79A G88C C93A U102G — lower, ≤ -4.2
- C27G A37G G92C C99A — lower, ≤ -4.2
- C27A C95A A122G — lower, ≤ -4.2
- C27U U33G G68U C79U C96U U130A — lower, ≤ -4.2
- C27U A49U C129G — lower, ≤ -4.2
- C27A C85U G133C U145A — lower, ≤ -4.2
- C27U A28U U56G C105U C108G C118A — lower, ≤ -4.2
- A28C U56G C85G A98G A142G — lower, ≤ -4.2
- C27G A29C A47C G68A C87G C123U — lower, ≤ -4.2
- A26U U82A C85U G112U — lower, ≤ -4.2
- A28C A29U C38A G128C — lower, ≤ -4.2
- C27G C76A G81C G86U A91G U101G C108A — lower, ≤ -4.2
- C27U C32A U53C C75U C87A C114U A120U U130G C149U — lower, ≤ -4.2
- C27U A64U C87U G88A C93G — lower, ≤ -4.2
- C27G U61G U78G G92U — lower, ≤ -4.2
- C27G U53A G94C C103A A107U C149G — lower, ≤ -4.2
- C27G C75G A98G A121U C131U G141C — lower, ≤ -4.2
- C27U C63U G81A A89G A97U A119G C125U — lower, ≤ -4.2
- C27A A28U C38U G50U C87A A97U G100U C103G U144C — lower, ≤ -4.2
- C27A A29U A41U A97G A121U — lower, ≤ -4.2
- A28C A39C A91U A120U G143C — lower, ≤ -4.2
- A28C A107G U144C U148C — lower, ≤ -4.2
- C27G G62A A64G A73C G88U C99U A107U G124A U130C U148A — lower, ≤ -4.2
- C27U C32A G46U A47C U53A C87G — lower, ≤ -4.2
- C27G A91C C96U C99U A119C A138C U148G — lower, ≤ -4.2
